# Experimental data as given in US10618965 (dated 2020).
# Read-outs that look alike come from different tables or passages of the source.
# B1: F760 (antibody)
# chain 1: QVQLQESGPGLVKPSETLSLTCAVSGHSISHDHAWSWVRQPPGEGLEWIGFISYSGITNYNPSLQGRVTISRDNSKNTLYLQMNSLRAEDTAVYYCARSLARTTAMDYWGEGTLVTVSS[here human IgG1 constant region with L235R S239K (EU numbers) without letters]
# chain 2: DIQMTQSPSSLSASVGDRVTITCRASQDISSYLNWYQQKPGKAPKLLIYYTSRLHSGVPSRFSGSGSGTDFTFTISSLQPEDIATYYCQQGNTLPYTFGQGTKVEIKRTVAAPSVFIFPPSDEQLKSGTASVVCLLNNFYPREAKVQWKVDNALQSGNSQESVTEQDSKDSTYSLSSTLTLSKADYEKHKVYACEVTHQGLSSPVTKSFNRGEC
# B2: IgG4 (antibody)
# chain 1: QVQLQESGPGLVKPSETLSLTCAVSGHSISHDHAWSWVRQPPGEGLEWIGFISYSGITNYNPSLQGRVTISRDNSKNTLYLQMNSLRAEDTAVYYCARSLARTTAMDYWGEGTLVTVSSASTKGPSVFPLAPCSRSTSESTAALGCLVKDYFPEPVTVSWNSGALTSGVHTFPAVLQSSGLYSLSSVVTVPSSSLGTKTYTCNVDHKPSNTKVDKRV[here human IgG4 Fc with S228P (EU numbers) without letters]
# chain 2: DIQMTQSPSSLSASVGDRVTITCRASQDISSYLNWYQQKPGKAPKLLIYYTSRLHSGVPSRFSGSGSGTDFTFTISSLQPEDIATYYCQQGNTLPYTFGQGTKVEIKRTVAAPSVFIFPPSDEQLKSGTASVVCLLNNFYPREAKVQWKVDNALQSGNSQESVTEQDSKDSTYSLSSTLTLSKADYEKHKVYACEVTHQGLSSPVTKSFNRGEC
# Assays:
# [1] = molecular target: human FcRn (with beta2-microglobulin) (human); test: SPR, pH 7.0
# [2] = molecular target: human FcRn (with beta2-microglobulin) (human); test: SPR, pH 7.0; remark: listed apart in the source
Binder,binding result [1],binding result [2]
B1,no binding,–
B2,–,no binding
